{
  "source": "paper PMC4336329",
  "about": "(PLoS ONE, 2015)",
  "note": "In all, about 310,000 compounds went through this assay and about 14,000 (4.5%) showed an effect of 50% or more. Effects have a minus sign here. This is one part of the list.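 Note: peak tail current of the secondary pulse compared with the same well before compound.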",
  "data": [
    {"target": "human ether-à-go-go-related gene (hERG) potassium channel (human, UniProt Q12809)", "sequence (Q12809 whole entry, looked up)": "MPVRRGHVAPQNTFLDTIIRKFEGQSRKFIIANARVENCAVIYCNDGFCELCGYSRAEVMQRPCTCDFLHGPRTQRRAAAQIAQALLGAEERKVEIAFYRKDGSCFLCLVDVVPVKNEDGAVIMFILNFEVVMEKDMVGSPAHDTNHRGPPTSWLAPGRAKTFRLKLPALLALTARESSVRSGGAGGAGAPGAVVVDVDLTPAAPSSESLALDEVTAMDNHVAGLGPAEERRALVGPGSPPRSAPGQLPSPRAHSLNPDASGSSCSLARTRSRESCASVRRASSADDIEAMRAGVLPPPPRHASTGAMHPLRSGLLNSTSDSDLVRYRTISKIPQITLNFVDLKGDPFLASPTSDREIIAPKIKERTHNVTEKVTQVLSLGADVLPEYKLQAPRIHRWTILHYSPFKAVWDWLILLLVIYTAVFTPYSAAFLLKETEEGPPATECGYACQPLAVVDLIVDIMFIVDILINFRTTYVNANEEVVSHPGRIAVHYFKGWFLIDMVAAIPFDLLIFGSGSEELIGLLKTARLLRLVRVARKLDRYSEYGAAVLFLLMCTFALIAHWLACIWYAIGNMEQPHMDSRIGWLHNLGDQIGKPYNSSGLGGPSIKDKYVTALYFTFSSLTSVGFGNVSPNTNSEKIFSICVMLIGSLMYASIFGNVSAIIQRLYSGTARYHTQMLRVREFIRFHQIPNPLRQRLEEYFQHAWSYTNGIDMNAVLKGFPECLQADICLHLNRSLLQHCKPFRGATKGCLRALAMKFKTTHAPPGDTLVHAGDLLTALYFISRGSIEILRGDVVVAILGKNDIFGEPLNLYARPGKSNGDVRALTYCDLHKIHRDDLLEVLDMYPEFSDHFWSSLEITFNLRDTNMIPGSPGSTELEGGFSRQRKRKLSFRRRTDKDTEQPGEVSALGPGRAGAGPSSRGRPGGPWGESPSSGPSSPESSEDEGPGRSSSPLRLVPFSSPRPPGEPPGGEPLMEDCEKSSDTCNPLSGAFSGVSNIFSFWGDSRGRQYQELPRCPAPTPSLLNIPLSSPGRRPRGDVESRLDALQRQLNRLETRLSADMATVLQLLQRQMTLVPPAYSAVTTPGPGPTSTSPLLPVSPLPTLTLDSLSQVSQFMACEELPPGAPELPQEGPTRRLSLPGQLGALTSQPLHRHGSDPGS", "test": "primary screen, population patch clamp on CHO cells stably expressing hERG", "units": {"hERG current change (%, negative = inhibition) at 10uM": "%"}, "values": [
      {"smiles": "Cc1ccccc1OCC(=O)Nc1ccc2c(c1)Cc1ccccc1-2", "hERG current change (%, negative = inhibition) at 10uM": -3.31},
      {"smiles": "COc1ccccc1OCc1nc(C#N)c(NCc2ccco2)o1", "hERG current change (%, negative = inhibition) at 10uM": -6.35},
      {"smiles": "COc1cc2c(cc1OC)C(C)N(C(=O)CCc1c[nH]c3ccccc13)CC2", "note": "(centres unmarked)", "hERG current change (%, negative = inhibition) at 10uM": 10.2},
      {"smiles": "CS(=O)(=O)c1ccc(-c2nnc(NC(=O)c3ccco3)o2)cc1", "hERG current change (%, negative = inhibition) at 10uM": 13.9},
      {"smiles": "CNC(=O)NC(=O)C(c1ccccc1)N(C)CC1COc2ccccc2O1", "note": "(centres unmarked)", "hERG current change (%, negative = inhibition) at 10uM": 10.8},
      {"smiles": "COc1cc(OC)cc(C(=O)N2CCC(N3CCN(c4ccccc4OC)CC3)CC2)c1.O=C(O)C(F)(F)F", "hERG current change (%, negative = inhibition) at 10uM": -23.4},
      {"smiles": "COCCNC(=O)C(c1ccncc1)N(C(=O)Cn1nnc2ccccc21)c1ccc(OC)cc1", "note": "(centres unmarked)", "hERG current change (%, negative = inhibition) at 10uM": 6.46},
      {"smiles": "COc1ccccc1C(=O)Nc1c(C)cc(Br)cc1C", "hERG current change (%, negative = inhibition) at 10uM": 7.12},
      {"smiles": "COc1ccc(Cc2nnc(-c3cccc(C)c3)o2)cc1OC", "hERG current change (%, negative = inhibition) at 10uM": 6.9},
      {"smiles": "CCc1nnc(NC(=O)CSc2nc3ccccc3s2)s1", "hERG current change (%, negative = inhibition) at 10uM": -0.994},
      {"smiles": "CC(=O)c1ccc(N2CCN(C(=O)C3CCN(S(=O)(=O)Cc4ccccc4)CC3)CC2)cc1", "hERG current change (%, negative = inhibition) at 10uM": 3.03},
      {"smiles": "COc1ccc(NC(=S)N2CCC(C(=O)c3ccc(OC)cc3)CC2)cc1", "hERG current change (%, negative = inhibition) at 10uM": -45.4},
      {"smiles": "O=c1cc(CN2CCN(c3cccc(Cl)c3)CC2)c2cc3c(cc2o1)CCCC3", "hERG current change (%, negative = inhibition) at 10uM": 15.8},
      {"smiles": "COc1cc(NC(=O)CSc2nc(=O)n(CCN3CCOCC3)c3c2CCC3)cc(OC)c1", "hERG current change (%, negative = inhibition) at 10uM": -41.9},
      {"smiles": "O=C(N/N=C\\c1ccc(S(=O)(=O)[O-])o1)c1ccc2c(c1)OCO2.[Na+]", "hERG current change (%, negative = inhibition) at 10uM": 22.9},
      {"smiles": "CC1CCC2(CC1)SCC(=O)N2c1ccccc1", "note": "(centres unmarked)", "hERG current change (%, negative = inhibition) at 10uM": 0.289},
      {"smiles": "CCOc1cc(S(=O)(=O)n2c(C)nc3ccccc32)ccc1F", "hERG current change (%, negative = inhibition) at 10uM": -3.78},
      {"smiles": "Cc1ccc(-n2[nH]c(C)c(/C=N/Nc3ccc([N+](=O)[O-])cc3[N+](=O)[O-])c2=O)cc1C", "hERG current change (%, negative = inhibition) at 10uM": 21},
      {"smiles": "N/C(=N\\OC(=O)CCn1cccc(C(F)(F)F)c1=O)c1ccc(Cl)cc1", "hERG current change (%, negative = inhibition) at 10uM": -12.7},
      {"smiles": "O=c1c([N+](=O)[O-])c(N2CCCCCC2)c2ccccc2n1-c1ccccc1", "hERG current change (%, negative = inhibition) at 10uM": 19.6},
      {"smiles": "COc1ccc(C(C(=O)NC2CCCC2)N(Cc2cccnc2)C(=O)Cc2cccs2)cc1OC", "note": "(centres unmarked)", "hERG current change (%, negative = inhibition) at 10uM": -1.66},
      {"smiles": "Cc1cc2nc(C3CCN(Cc4nnnn4Cc4cccs4)CC3)[nH]c2cc1C", "hERG current change (%, negative = inhibition) at 10uM": -83},
      {"smiles": "COc1ccccc1C(=O)NC(=S)Nc1ccc2[nH]c(=O)[nH]c2c1", "hERG current change (%, negative = inhibition) at 10uM": 26.1},
      {"smiles": "Cc1ccc(/C=N/NC(=O)c2nnn(-c3nonc3N)c2CSc2ccc(Cl)cc2)cc1", "hERG current change (%, negative = inhibition) at 10uM": 15.5},
      {"smiles": "Cc1nc2ccccc2c(=O)n1/N=C/C=C/c1ccccc1", "hERG current change (%, negative = inhibition) at 10uM": -0.928},
      {"smiles": "Cc1ccc2nc(SCC(=O)Nc3cc(C(F)(F)F)ccc3N3CCOCC3)[nH]c2c1", "hERG current change (%, negative = inhibition) at 10uM": 7.28},
      {"smiles": "CCCCC(=O)Nc1ccc2c(c1)oc1ccccc12", "hERG current change (%, negative = inhibition) at 10uM": 0.195},
      {"smiles": "CCn1c(=O)c(CCC(=O)NCCN2CCOCC2)c(C)c2c(C)nn(-c3cccc(C)c3)c21", "hERG current change (%, negative = inhibition) at 10uM": -6.38},
      {"smiles": "CC1CN(C(=O)CSc2nnc(CNC(=O)c3ccc(S(=O)(=O)N(C)C)cc3)o2)CC(C)O1", "note": "(centres unmarked)", "hERG current change (%, negative = inhibition) at 10uM": 21.1},
      {"smiles": "COCC(=O)Nc1ccc(S(=O)(=O)N2CCCC2)cc1", "hERG current change (%, negative = inhibition) at 10uM": 19.9},
      {"smiles": "N#Cc1cn(CCOC(=O)c2cccc(C(F)(F)F)c2)c(=O)[nH]c1=O", "hERG current change (%, negative = inhibition) at 10uM": 4.61},
      {"smiles": "CCC(C)Cn1c(C(C)O)nc2ccccc21", "note": "(centres unmarked)", "hERG current change (%, negative = inhibition) at 10uM": 0.00748},
      {"smiles": "CCC(OC(=O)CNS(=O)(=O)c1ccccc1)C(=O)c1ccccc1", "note": "(centres unmarked)", "hERG current change (%, negative = inhibition) at 10uM": 6.71},
      {"smiles": "CCCC(=O)c1ccc(N2CCOCC2)c(F)c1", "hERG current change (%, negative = inhibition) at 10uM": 5.76},
      {"smiles": "COc1cc(C2C3=C(Nc4ncnn42)c2ccccc2CC3)cc(OC)c1OC", "note": "(centres unmarked)", "hERG current change (%, negative = inhibition) at 10uM": -17.3},
      {"smiles": "O=C(CSc1nnnn1Cc1ccccc1)Nc1ccc2c(c1)OCCO2", "hERG current change (%, negative = inhibition) at 10uM": -3.63},
      {"smiles": "N#CCO/N=C/C(=O)Nc1ccc(F)cc1F", "hERG current change (%, negative = inhibition) at 10uM": 2.49},
      {"smiles": "COC(=O)c1ccc(NC(=O)CS(=O)(=O)Cc2ccccc2)cc1", "hERG current change (%, negative = inhibition) at 10uM": 1.28},
      {"smiles": "CN(CC(=O)O)Cc1nc2ccccc2[nH]1.Cl", "hERG current change (%, negative = inhibition) at 10uM": 6.63},
      {"smiles": "Cl.O=C1Cc2ccccc2Sc2cc(OCCCN3CCCCC3)ccc21", "hERG current change (%, negative = inhibition) at 10uM": -69.8},
      {"smiles": "COc1ccc(-n2c(=O)[nH]cc(C(=O)Nc3ccc4c(c3)OCO4)c2=O)cc1OC", "hERG current change (%, negative = inhibition) at 10uM": 4.63},
      {"smiles": "CCOC(=O)N1CCN(C(=O)C2CCN(Cc3nc(-c4ccccc4C)oc3C)CC2)CC1", "hERG current change (%, negative = inhibition) at 10uM": -58.3},
      {"smiles": "S=C(NCCN1CCOCC1)Nc1ccc(Cl)cc1Cl", "hERG current change (%, negative = inhibition) at 10uM": -18},
      {"smiles": "CC(=O)C(=Nc1ccccc1Cl)NNc1ccc(Cl)cc1", "hERG current change (%, negative = inhibition) at 10uM": 17.3},
      {"smiles": "O=C(Cc1ccc(Cl)cc1)N/N=C/c1cccs1", "hERG current change (%, negative = inhibition) at 10uM": 13.9},
      {"smiles": "COc1ccc(C2C(C(=O)c3ccco3)=C(O)C(=O)N2CCOCCO)cc1OC", "note": "(centres unmarked)", "hERG current change (%, negative = inhibition) at 10uM": 15},
      {"smiles": "Cc1noc(C)c1C(=O)Nc1nc(-c2ccccc2Cl)cs1", "hERG current change (%, negative = inhibition) at 10uM": -0.869},
      {"smiles": "c1cc2c(cc1-c1cnc3n1CCC3)OCCO2", "hERG current change (%, negative = inhibition) at 10uM": -25.5},
      {"smiles": "O=C(Nc1cccc(Br)c1)/C(=C\\c1cccnc1)NC(=O)c1ccco1", "hERG current change (%, negative = inhibition) at 10uM": -56.6},
      {"smiles": "COc1ccc(-c2c(-c3ccsc3)oc3ccc(N4CCOCC4)cc23)cc1", "hERG current change (%, negative = inhibition) at 10uM": -0.8},
      {"smiles": "N#Cc1nc(-c2ccc(OCc3ccc(Cl)cc3)cc2)oc1NCCCn1ccnc1", "hERG current change (%, negative = inhibition) at 10uM": 5.77},
      {"smiles": "Cc1ccc(-n2c(Cc3cccc4ccccc34)n[nH]c2=S)c(C)c1", "hERG current change (%, negative = inhibition) at 10uM": 16.3},
      {"smiles": "CC(C)(C)NC(=O)C(=O)N/N=C/c1ccc(F)cc1", "hERG current change (%, negative = inhibition) at 10uM": 7.3},
      {"smiles": "COc1ccc(OC)c(/C=N/NC(=O)C(O)c2ccccc2)c1", "note": "(centres unmarked)", "hERG current change (%, negative = inhibition) at 10uM": 13.5},
      {"smiles": "O=C(N/N=C/c1ccccc1[N+](=O)[O-])c1ccc2nc[nH]c2c1", "hERG current change (%, negative = inhibition) at 10uM": 11.3},
      {"smiles": "CC(=O)NCCNc1nc2c(-c3ccccc3)nnn2c2ccccc12", "hERG current change (%, negative = inhibition) at 10uM": 6.84}
    ]}
  ]
}
